Reference: PubChem BioAssay AID485344 (National Center for Advancing Translational Sciences (NCATS), 2010)
Hit rate of the full screen: of about 340,000 compounds, about 6,900 (2%) were called active. Rule as the data show it: active = inhibition above about 30%; inactive = below that, where a call was filed. Only a part is listed here, and it is no random draw. The source gives no active or inactive call for entries shown without one.

The compounds below were run against D(2) dopamine receptor (Homo sapiens) (UniProt P14416) (assay: HTS Assay for Allosteric Antagonists of the Human D2 Dopamine Receptor: Primary Screen for Antagonists). Conditions: HEK293 TREx D2 cells, calcium flux, dopamine EC80; at 10 µM; stronger effect = higher value.
Sequence of UniProt P14416 (P14416 whole entry, looked up): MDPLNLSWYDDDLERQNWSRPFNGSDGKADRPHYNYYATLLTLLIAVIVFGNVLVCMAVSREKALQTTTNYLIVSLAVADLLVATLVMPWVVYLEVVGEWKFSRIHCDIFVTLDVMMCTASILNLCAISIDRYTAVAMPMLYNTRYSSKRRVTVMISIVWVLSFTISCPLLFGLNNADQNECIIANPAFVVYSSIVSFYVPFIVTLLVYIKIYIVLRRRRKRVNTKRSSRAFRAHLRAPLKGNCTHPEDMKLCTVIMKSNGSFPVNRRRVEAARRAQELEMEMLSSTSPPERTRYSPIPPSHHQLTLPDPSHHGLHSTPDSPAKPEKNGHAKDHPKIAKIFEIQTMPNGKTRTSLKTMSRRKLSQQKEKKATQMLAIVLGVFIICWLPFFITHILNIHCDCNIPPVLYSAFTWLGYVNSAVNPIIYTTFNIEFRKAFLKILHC
Procedure, shortened: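 Tetracycline-induced HEK293 T-REx cells expressing D2 force-coupled to calcium signalling were dye-loaded, exposed to compound for 180 s, then challenged with an EC80 of dopamine; calcium flux was followed kinetically for a further 180 s.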
Also: 0% is about no effect.

`CCc1ccccc1NC(=O)CN1C(=O)c2cccnc2Sc2ccccc21` was tested. Which inhibition did it give?
Its inhibition is 12.2%.

Which inhibition does the source give for `CCn1c(=O)c2sccc2n2c(CCC(=O)Nc3ccc(OC)cc3OC)nnc12` here?
The inhibition was -12.5%.

For `Cc1ccc(Cn2c(CNC(=O)Cc3cccc([N+](=O)[O-])c3)nc3cccnc32)cc1`, which inhibition is on record?
Its inhibition is 3.86%.

How did the inhibition turn out when `CC(C)N1CCN(Cc2ccsc2)CC1CCO` (configuration not stated) was run?
Its inhibition is active: 44.4%.

Which inhibition does the source give for `O=S(=O)(NCC(c1ccccc1)N1CCc2ccccc21)c1ccccc1` (configuration not stated) here?
Its inhibition is 1.64%.

`CCn1c(=N)c(C(=O)NCC2CCCO2)cc2c(=O)n3cc(C)ccc3nc21` (configuration not stated) was tested. Which inhibition did it give?
Its inhibition is 0.247%.

For `O=c1c2ccccc2n(Cc2c(F)cccc2Cl)c(=O)n1Cc1ccccc1`, which inhibition is on record?
The inhibition was -7.08%.

`COCc1nc2ccccc2n1Cc1cccc(C)c1` was tested. Which inhibition did it give?
The inhibition was 1.02%.

With `COc1ccc(-c2nc3ccccc3s2)cc1NC(=O)c1cccc([N+](=O)[O-])c1C` as the compound, how does the inhibition read?
The inhibition was 1.57%.

For `CC(NC(=O)CSc1nc(-c2cccc(Cl)c2)nc2cc(=O)[nH]n12)c1nc2ccccc2n1C` (configuration not stated), which inhibition is on record?
Its inhibition is 0.171%.

How did the inhibition turn out when `CCCOc1ccc(C2c3c(-c4ccccc4O)n[nH]c3C(=O)N2Cc2cccnc2)cc1` (configuration not stated) was run?
Its inhibition is 11.6%.

How did the inhibition turn out when `CC(C)OCCCn1c(=O)c2ccccc2n2c(-c3cc(Cl)ccc3O)nnc12` was run?
Its inhibition is 15.3%.

How did the inhibition turn out when `Cc1cn2c(=O)cc(COC(=O)c3ccc(NC(=O)COc4ccc(C)c(C)c4)cc3)nc2s1` was run?
Its inhibition is -3.46%.

How did the inhibition turn out when `COc1cc(C(=O)Nc2ccc(-c3nc4ccccc4o3)c(O)c2)cc(OC)c1OC` was run?
The inhibition was 12.4%.

`CCc1ccccc1NC(=O)CSc1nnc(COc2ccccc2Cl)o1` was tested. Which inhibition did it give?
The inhibition was 21.1%.

With `CCOc1ccc(-c2cc(C(=O)NCCCOC)c3c(-c4ccc(CC)cc4)[nH]nc3n2)cc1` as the compound, how does the inhibition read?
Its inhibition is -1.16%.

How did the inhibition turn out when `COc1cc2c(cc1OC)C(COc1ccc(F)cc1)N(C(=O)Cc1ccccc1)CC2` (configuration not stated) was run?
The inhibition was 3.48%.

How did the inhibition turn out when `COC(=O)c1ccccc1NC(=O)c1cc(CN2CCOCC2)on1` was run?
Its inhibition is 4.05%.

For `CCOc1cc(C(=O)NCc2nc(-c3cccc(C)c3)no2)cc(OCC)c1OCC`, which inhibition is on record?
The inhibition was 16.3%.

Which inhibition does the source give for `CCc1cccc(C)c1Nc1c(-c2cccs2)nc2nc(C)cc(C)n12` here?
Its inhibition is -0.896%.

For `O=C(CSc1nc2ccccc2nc1Cc1ccccc1F)Nc1cccc(C(F)(F)F)c1`, which inhibition is on record?
Its inhibition is 2.32%.

For `COc1ccc(-c2onc(C)c2C)cc1S(=O)(=O)Nc1cc(Cl)ccc1C`, which inhibition is on record?
The inhibition was -6.22%.

`CCC(=O)Nc1ccc(CC)cc1-c1nc2ccccc2n(CC(=O)Nc2ccccc2C)c1=O` was tested. Which inhibition did it give?
Its inhibition is 13.2%.

For `Cc1ccc(NC(=O)Cn2c(=O)oc3cc(S(=O)(=O)N4CCCCC4)ccc32)c(C)c1`, which inhibition is on record?
Its inhibition is 5.02%.

`COc1ccc(-c2cc3nc(C)c(CCC(=O)N4CCN(c5ccccc5F)CC4)c(C)n3n2)c(OC)c1` was tested. Which inhibition did it give?
Its inhibition is 14.1%.

How did the inhibition turn out when `Cc1ccc(CNc2ncnc3onc(C)c23)cc1` was run?
The inhibition was -0.202%.

How did the inhibition turn out when `CCN(CC)c1ccc(NC(=O)CCS(=O)(=O)c2ccc3c(c2)oc(=O)n3C)c(C)c1` was run?
The inhibition was -8.01%.

With `Cc1nn2c(=O)cc(COc3ccc(/C=C(\C#N)C(=O)Nc4ccccc4)cc3Cl)nc2s1` as the compound, how does the inhibition read?
Its inhibition is -8.09%.

`O=C(OCc1ccccc1Cl)c1ccc(-c2nnn(Cc3ccc(F)cc3)n2)cc1` was tested. Which inhibition did it give?
The inhibition was 9.66%.

How did the inhibition turn out when `Brc1ccc2c(c1)NC(c1cccnc1)=NC(c1ccccc1)=N2` was run?
Its inhibition is 9.68%.

Which inhibition does the source give for `Cc1ccc(CN2c3ccccc3-c3nc(SCC(=O)Nc4c(C)cc(C)cc4C)ncc3S2(=O)=O)cc1` here?
The inhibition was -1.09%.

`Cc1noc(C)c1S(=O)(=O)N1CCN(c2ccccc2)CC1` was tested. Which inhibition did it give?
The inhibition was active: 38.4%.

Which inhibition does the source give for `COc1ccc(NC(=O)Nc2cc(-c3cn4cccnc4n3)ccc2OC)cc1` here?
The inhibition was -22.1%.

`CCOc1ccccc1NC(=O)N1CCc2c(sc3c2CCCC3)C1c1ccccc1` (configuration not stated) was tested. Which inhibition did it give?
The inhibition was -9.36%.

For `CCCCSCCCNC(=O)c1c[nH]c2ccc(S(=O)(=O)Nc3cccc(OC)c3)cc2c1=O`, which inhibition is on record?
The inhibition was -7.82%.

With `COc1ccccc1CN1C(=O)C(=O)c2cccc(C)c21` as the compound, how does the inhibition read?
The inhibition was 3.69%.

`COc1ccc(-n2ccnc(NCCc3ccc(Cl)cc3)c2=O)cc1OC` was tested. Which inhibition did it give?
Its inhibition is -2.07%.

For `CC(=O)N1c2ccc(S(=O)(=O)N(C)CC(=O)N(Cc3ccccc3)C(C)C)cc2CC1C` (configuration not stated), which inhibition is on record?
Its inhibition is 11.1%.

How did the inhibition turn out when `O=C(Cc1ccccc1)Nc1nnc2n1CCS2` was run?
The inhibition was -13.8%.

With `CCN(Cc1ccccc1)Cc1c(O)ccc2oc(C)c(C(=O)Nc3ccccc3C)c12` as the compound, how does the inhibition read?
The inhibition was 4.82%.

`CCC(C)NC(=O)Cn1c(=O)n(-c2ccc(C)c(C)c2)c(=O)c2c(C)c(C(=O)N(CC)CC)sc21` (configuration not stated) was tested. Which inhibition did it give?
The inhibition was 7.73%.

With `CCOc1ccccc1NC(=O)CSC1=Nc2ccccc2C2=NC(CC(=O)NCc3ccc4c(c3)OCO4)C(=O)N12` (configuration not stated) as the compound, how does the inhibition read?
The inhibition was 8.94%.

Which inhibition does the source give for `Cc1nn(CC(=O)NCCc2ccccc2)c(=O)c2c1sc1ccccc12` here?
The inhibition was 12.8%.

Which inhibition does the source give for `O=c1cc(-c2ccccc2)n2c(SCc3ccc(Br)cc3)nnc2[nH]1` here?
The inhibition was 8.67%.

How did the inhibition turn out when `COc1ccc(C(CCN2CCN(c3ccccc3)CC2)c2c(O)cc(OC)cc2OC)cc1` (configuration not stated) was run?
Its inhibition is active: 79.6%.

How did the inhibition turn out when `CCn1c(C(=O)N2CCCC(C(=O)N3CCN(c4ccccc4)CC3)C2)cc2sccc21` (configuration not stated) was run?
Its inhibition is -2.34%.

`COc1ccc(-c2cc3nccc(-c4cc(Cl)c(C)cc4O)n3n2)cc1` was tested. Which inhibition did it give?
Its inhibition is -5.06%.

With `C/C(=N\Nc1cccc([N+](=O)[O-])c1)c1cc(F)ccc1O` as the compound, how does the inhibition read?
Its inhibition is active: 35.1%.

How did the inhibition turn out when `O=[N+]([O-])c1ccc(Cl)c(CN2CCN(c3ncccn3)CC2)c1` was run?
The inhibition was active: 33.2%.

How did the inhibition turn out when `CCn1cc(C(=O)N2CCN(c3ccc(OC)cc3)CC2)c2cc(OC)c(OC)cc2c1=O` was run?
The inhibition was 1.63%.

For `CCOc1ccccc1C1C(C(=O)Nc2ccccc2)=C(C)Nc2c(C(=O)Nc3ccc(F)cc3)cnn21` (configuration not stated), which inhibition is on record?
Its inhibition is 15.7%.

For `CCOc1ccc(-c2cccc(NS(=O)(=O)c3ccccc3C(F)(F)F)c2)nn1`, which inhibition is on record?
The inhibition was -3.8%.

`Cc1ccc(NC(=O)Cn2cc(C(=O)c3ccco3)c3ccccc32)cc1` was tested. Which inhibition did it give?
Its inhibition is 15.2%.

Which inhibition does the source give for `O=S(=O)(c1ccc2nc(Nc3cccc(F)c3)ccc2c1)N1CCCC1` here?
The inhibition was 3.57%.

`Cc1ccccc1Cn1c2ccccc2c2cnn(CC(=O)N3CCC(C)CC3)c(=O)c21` was tested. Which inhibition did it give?
Its inhibition is -1.37%.

With `Cc1ccc(S(=O)(=O)NCC(Nc2cccc(Cl)c2)c2ccccc2)cc1` (configuration not stated) as the compound, how does the inhibition read?
Its inhibition is 15.5%.

For `CCOc1ccccc1C(=O)Nc1ccc2nc3c(c(Nc4ccc(OC)c(OC)c4)c2c1)CCCC3`, which inhibition is on record?
The inhibition was -8.85%.

For `O=C(NCc1ccc(F)cc1)c1ccc2c(c1)nc1n2CCCCC1`, which inhibition is on record?
Its inhibition is -16.3%.

Which inhibition does the source give for `Cc1ncc(CO)c2c1Oc1nc(-c3ccc(F)cc3)nc(SCc3ccc(F)cc3Cl)c1C2` here?
The inhibition was -8.87%.

`Cc1cc(O)c2c(C)c(CC(=O)N3CCCCC3)c(=O)oc2c1` was tested. Which inhibition did it give?
Its inhibition is 1.26%.

Which inhibition does the source give for `COc1ccc(-c2noc(-c3nnn(-c4ccc(C(C)C)cc4)c3C)n2)cc1OC` here?
The inhibition was -6.83%.

For `Cc1cc(Nc2cccc(Cl)c2)nc2ccc(NC(=O)c3cccc(N(C)C)c3)cc12`, which inhibition is on record?
Its inhibition is 4.31%.
